{"source": "paper PMC12136788", "binders": {"B1": {"name": "chr14:76904430:76904431:+_ENSMUSG00000022010_ENSMUST00000022587|mus_mus|mus_mus_mus_hu_True|28_38 (ssRNA)", "RNA": "GGGAGUUCUACAGUCCGACGAUCUGCAGCCAAAAACACCCUCGUGGAAAAAAAGAGGGAACACCAGCAGCCUUGUAUAAGCUAGAUAAAAUCUUCUAGCUGUCUGCAGCUCAGGGCGAAACAGAAAACGGCAGCCCUAAUUUACAACAGAGGAUUGAGCAUCA"}, "B2": {"name": "chr1:151373259:151373260:+_ENSG00000159377_ENST00000290541|hu_hu|FALSE|FALSE (ssRNA)", "RNA": "GGGAGUUCUACAGUCCGACGAUCCAAGUAUGCACCAUAACCAGUGGCCAGCGAAGGGGCUUCAUAGGCUACACCAAGCAUGUCCACAUAACCGAGGAAGCUCUCUCCAUCAGCAUAGCCUCCGAUGACCAUGGUGUUCCACAACAACAGAGGAUUGAGCAUCA"}, "B3": {"name": "17669756_17675234_813_CDS_ENSG00000124789_ENST00000262077|human|control|control (ssRNA)", "RNA": "GGGAGUUCUACAGUCCGACGAUCCAUUUGUCUUCUAACUGGUGCCUGAUAAGGUGUAUUUCGUAGUUUAGACUGUCUUACAGCAGCUGCUGCCCCACCGUAUGUUGUUUUUCCAGGAUAAAAAGGAGAAUCUCCAAGCUGACUCAACAGAGGAUUGAGCAUCA"}, "B4": {"name": "chr22:19452774:19452775:-_ENSG00000070010_ENST00000399523|hu_hu|hu_hu_hu_mus_False|28_28 (ssRNA)", "RNA": "GGGAGUUCUACAGUCCGACGAUCCUUCUCAUUGUAGUUGAUAGCAAUCACAUCUCCAGUCGUCAGACAGGCGAAGUUUCUCAAUGCAUUUUCUAAUACCGCUUUAGGGUUGGUGAUAUCCAGGAAGUCUGGGCUCUGAGGCUGCAACAGAGGAUUGAGCAUCA"}, "B5": {"name": "chr1:6238667:6238668:+_ENSMUSG00000025907_ENSMUST00000027040|mus_hu|FALSE|FALSE (ssRNA)", "RNA": "GGGAGUUCUACAGUCCGACGAUCCAUCAUUUCUGGGCUUUGUGGAUCACUUAUAGGAUUAGGAGACGACAAAUUUUCUUCUAUUACAAACUCAUUCACAGCAGACAUAAAAUCUGAUUCAGGACUUUCUGCUAAUGAAUCCAACAACAGAGGAUUGAGCAUCA"}, "B6": {"name": "chr10:72184726:72184727:+_ENSG00000148730_ENST00000373218|hu_hu|FALSE|FALSE (ssRNA)", "RNA": "GGGAGUUCUACAGUCCGACGAUCUCAUGUUAAACUACUCCCAAAUUCUUAACCCACAGAAACUGACAGAUAAUGUUUACUAUUUUAACAUACUAAAUUUAGGGUAAUUUUUUACACAGCAAUAGAUAACUAAUACAGGUGGAACAACAGAGGAUUGAGCAUCA"}, "B7": {"name": "chr6:82862619:82862620:-_ENSMUSG00000000627_ENSMUST00000000641|mus_hu|motif|central (ssRNA)", "RNA": "GGGAGUUCUACAGUCCGACGAUCUAUCUUUAUACUGCUCGUAUAUCCUAUGACUGUUCCCCUUCUGUUGUUCCCGGAUCAUUAGAAUGUUGUUGAUUUUUAAUGGGAGCCAAGGAAAUGGGGUACAGCCUACACUCCAGCCAGCAACAGAGGAUUGAGCAUCA"}, "B8": {"name": "chr5:145598128:145598129:+_ENSMUSG00000045482_ENSMUST00000132925|mus_hu|FALSE|FALSE (ssRNA)", "RNA": "GGGAGUUCUACAGUCCGACGAUCGAGGCGUGUGCACGUGGGACACUACGUGGGGCAGCCGCCGCCACUCGCGGAUGGCCAGGCUGCUGGCCAUCUCCACCAGGCGCUCGAUGAAGCUGAGCUGCUGCUCCUCGGGGUGGCAGACAACAGAGGAUUGAGCAUCA"}, "B9": {"name": "chr2:60073003:60073004:+_ENSMUSG00000026977_ENSMUST00000102748|mus_mus|FALSE|FALSE (ssRNA)", "RNA": "GGGAGUUCUACAGUCCGACGAUCAAGGAGGCUUUCUUUGAUUUUCUGAAGUUUUUCUGGGUCUCUUGAAGGUGCACUUUUAGCUUUAUCAUUUUUCCCAUCAGUUGAAUUCCAACCAGAAGGAAUAAUAUCUACAGUAAUCAUCAACAGAGGAUUGAGCAUCA"}, "B10": {"name": "91424020_91424254_1995_CDS_ENSG00000140564_ENST00000268171|human|control|control (ssRNA)", "RNA": "GGGAGUUCUACAGUCCGACGAUCGGACGUGAGGGUCUUGCAGCCACUGCUUUCUGGAGGUACGGGCAGCCCCUCAGGGGCGGUGCCAUAGAGUACGAGGGUGAACUUGGUCAGCGUCCCAUAGUUGUUGGCUUCGCUGGUGUUCAACAGAGGAUUGAGCAUCA"}, "B11": {"name": "chr2:64863866:64863867:-_ENSG00000179833_ENST00000313349|hu_hu|FALSE|FALSE (ssRNA)", "RNA": "GGGAGUUCUACAGUCCGACGAUCAAUUAAAACGGUCUUUUGCAAGCUGGGCUCUGUCAGGGGCCUGUGGUUAUAGAGUUUCAUAAGGGAAAUGUUGAAGAUAGUCUGGCGCUGUAAGGUGUAAGACACCUUGGAUGGACCGUCCAACAGAGGAUUGAGCAUCA"}, "B12": {"name": "chr17:57756778:57756779:+_ENSG00000141367_ENST00000269122|hu_hu|FALSE|FALSE (ssRNA)", "RNA": "GGGAGUUCUACAGUCCGACGAUCGCUGCCCCACAAUUCUGGAUCCUUUCGACGUACCAGGUAGCGAGAAAGACUUUUGAAGAGGGAAUUCUCAUUGCAAACAUUAAUAAGUUCCAGAUCACAUUGGCCACGUUCAUAAGCAACCAACAGAGGAUUGAGCAUCA"}, "B13": {"name": "chrX:131338992:131338993:-_ENSMUSG00000033436_ENSMUST00000035559|mus_hu|FALSE|FALSE (ssRNA)", "RNA": "GGGAGUUCUACAGUCCGACGAUCAUAACAUCACUCUGGAUGAUACAUUAUUCAACACUGGCAGCUGAAAGGAUCCCUUUACUAUAUGAGCAAGUGGAAAAGCAGUAACUUUCAAUUUUCAACGCUUCCACACUGCAAAAUCAUCAACAGAGGAUUGAGCAUCA"}, "B14": {"name": "chr3:152122376:152122377:+_ENSMUSG00000039068_ENSMUST00000106100|mus_hu|FALSE|FALSE (ssRNA)", "RNA": "GGGAGUUCUACAGUCCGACGAUCAACAGACAGUAUCCACAUAGUUUAUUUCUCACAGUUCUCCUGACAAAUGAACAUCAUUCAAGAACAUACUGUAUACACAGAUAAGAAGAAACAUACAAAAUGUUUUAAAUGAUGCACAACCAACAGAGGAUUGAGCAUCA"}, "B15": {"name": "chr8:32276666:32276667:-_ENSMUSG00000031578_ENSMUST00000033983|mus_hu|FALSE|FALSE (ssRNA)", "RNA": "GGGAGUUCUACAGUCCGACGAUCACGGGGCCAGUAAAUCAGAUUUUCAUCUAUUUGCUCCAGUGCUUUCUCAUAGUUUUUACUAAGCCGGACCCGUUCCCAGAGACGCCGAGGAAAAGCCGCUCGUUCUAUAACCUUCAUAUACAACAGAGGAUUGAGCAUCA"}, "B16": {"name": "chr4:115894766:115894767:+_ENSMUSG00000028698_ENSMUST00000030464|mus_hu|mus_mus_mus_hu_True|28_58 (ssRNA)", "RNA": "GGGAGUUCUACAGUCCGACGAUCUUCCACACGGAAAUGUACUUCGGGUUUUCCAACGGCCAGUACCAGUCCGGCCAACUACUAGGAACAGGGUCCUCCCCCUCUCUUCUCUCCUCCACAACAAAAUGCCCCCGAACUUUCAAGCAACAGAGGAUUGAGCAUCA"}, "B17": {"name": "chr12:67699843:67699844:+_ENSG00000111530_ENST00000544619|hu_mus|FALSE|FALSE (ssRNA)", "RNA": "GGGAGUUCUACAGUCCGACGAUCAAUAAACUGACCUACUACGGCGGGUCCCUCUUUAGGGCAAGCUCGAGUAAGGGCAGCUACACAUUUGGCAAUGGAAUAAUAAGACUGCUUAUGAGUGAGAGCAGUGCUCUGAGAAUAAACCAACAGAGGAUUGAGCAUCA"}, "B18": {"name": "chr4:17845017:17845018:+_ENSG00000109805_ENST00000514176|hu_mus|hu_hu_hu_mus_False|1_8 (ssRNA)", "RNA": "GGGAGUUCUACAGUCCGACGAUCGCUCUCUUAACUUGUAUCUUCAUUAAGGAACUCUGCAAGGUUAAGUUUACUUUUCUGUAGCGCAGCUGUUUUGGCUCGUCUGGGUAAUCUCAUCUUCAUUUCUAUUCUGGUUCUGGAACUCAACAGAGGAUUGAGCAUCA"}, "B19": {"name": "160785937_160786057_6708_CDS_ENSMUSG00000057133_ENSMUST00000039782|mouse|control|control (ssRNA)", "RNA": "GGGAGUUCUACAGUCCGACGAUCGCUGGCACUCACUGGGAAAGGAGAUGUGGCUCCUGGAGACCCCUCUGAGGAGCAGGAGAGGUCUAUAGCUGACUCCCCAUGCCAGCCAUUGAGGACAAUGGGCGGACGCCCAUGGGUGGCCAACAGAGGAUUGAGCAUCA"}, "B20": {"name": "chr11:74504092:74504093:-_ENSMUSG00000020745_ENSMUST00000021091|mus_hu|FALSE|FALSE (ssRNA)", "RNA": "GGGAGUUCUACAGUCCGACGAUCCUUCCUUUUUAAAAACUGAAUAUGCCUCUUCAUAGCCAUUUGAACGAAGAUAAUCUGCUAUAGCUCGAUUUAGUUCAUCUCGUUGUCUCUGGGACAGCACCAUCUUGGCUGUAAUGUCAACAACAGAGGAUUGAGCAUCA"}, "B21": {"name": "chr18:211299:211300:+_ENSG00000101557_ENST00000383589|hu_mus|motif|central (ssRNA)", "RNA": "GGGAGUUCUACAGUCCGACGAUCAGAUUAUAGAAAUGUUCAACAACAACAACAAAAACAUUCACACCUAAGCAUAAAUAGCGGAAUUGAAGAUUACUGUUCACUUUCUUCUUCCAUUAUUUCAACUCUUCGAGGCCCAUAAAGCAACAGAGGAUUGAGCAUCA"}, "B22": {"name": "chr10:98281081:98281082:-_ENSG00000077147_ENST00000371142|hu_mus|FALSE|FALSE (ssRNA)", "RNA": "GGGAGUUCUACAGUCCGACGAUCAUCGCAAUACAGUCCCCCAGUCAGUCUGUACAUCCAAAUGCAUCCAGGAACCUACACCUACGCGACAUUAUUAAUGUUAUAUACAUUUAUUGCCCCCCUUGUUUUGUUUAAUAAUUUCUUCAACAGAGGAUUGAGCAUCA"}}, "note": "This is one part of the list.", "data": [{"molecular_target": "T1, UNK ZnF1-3 (human, UniProt Q9C0B0 31-174)", "T1 sequence": "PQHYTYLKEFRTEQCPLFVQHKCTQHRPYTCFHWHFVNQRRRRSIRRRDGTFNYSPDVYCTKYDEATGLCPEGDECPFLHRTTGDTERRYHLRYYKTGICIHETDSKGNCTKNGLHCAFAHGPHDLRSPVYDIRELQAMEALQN", "assay": "nsRBNS (natural sequence RNA bind-n-seq); RBNS binding buffer (assumed for nsRBNS): 25 mM Tris pH 7.5, 150 mM KCl, 3 mM MgCl2, 0.01% Triton X-100, 500 ug/ml BSA, 20 U/ml SUPERase-In, 4 C; UNK is unkempt and MSI1 is Musashi-1; names of the RNAs are library labels; protein concentration not given here; high values mean tight binding", "units": {"binding signal": "enrichment R"}, "values": [{"binder": "B1", "binding signal": 2.05}, {"binder": "B2", "binding signal": 0.96}, {"binder": "B3", "binding signal": 0.674}, {"binder": "B4", "binding signal": 0.775}, {"binder": "B5", "binding signal": 1.37}, {"binder": "B6", "binding signal": 0.878}, {"binder": "B7", "binding signal": 0.624}, {"binder": "B8", "binding signal": 0.701}, {"binder": "B9", "binding signal": 0.862}, {"binder": "B10", "binding signal": 1.01}, {"binder": "B11", "binding signal": 0.806}, {"binder": "B12", "binding signal": 1.66}, {"binder": "B13", "binding signal": 1.33}, {"binder": "B14", "binding signal": 0.71}, {"binder": "B15", "binding signal": 1.04}, {"binder": "B16", "binding signal": 1.24}, {"binder": "B17", "binding signal": 1.15}, {"binder": "B18", "binding signal": 0.36}, {"binder": "B19", "binding signal": 0.765}, {"binder": "B20", "binding signal": 0.79}, {"binder": "B21", "binding signal": 0.543}, {"binder": "B22", "binding signal": 1.24}]}]}
